What all share (experiment): protein-binding microarray (PBM)
Common to all, as to details: PBM: ~300 nM protein, 6 mM HEPES pH 7.8, 80 mM KCl, 0.5 mM EDTA, 0.5 mM EGTA, 6% glycerol, 35 ng/ul poly-dIdC, 1% milk, 1 h, room temperature; Ap Aiptasia and Nv Nematostella (sea anemones) / Co Capsaspora / Aq Amphimedon (sponge) / Dm Drosophila / Hu human; RHD is the Rel homology domain; high values mean tight binding; most listed sequences are background and not binding sites; double strand, one strand shown

One test addresses T1, GST-Ap-NF-kB RHD (UniProt A0A913YAJ5).
T1 sequence: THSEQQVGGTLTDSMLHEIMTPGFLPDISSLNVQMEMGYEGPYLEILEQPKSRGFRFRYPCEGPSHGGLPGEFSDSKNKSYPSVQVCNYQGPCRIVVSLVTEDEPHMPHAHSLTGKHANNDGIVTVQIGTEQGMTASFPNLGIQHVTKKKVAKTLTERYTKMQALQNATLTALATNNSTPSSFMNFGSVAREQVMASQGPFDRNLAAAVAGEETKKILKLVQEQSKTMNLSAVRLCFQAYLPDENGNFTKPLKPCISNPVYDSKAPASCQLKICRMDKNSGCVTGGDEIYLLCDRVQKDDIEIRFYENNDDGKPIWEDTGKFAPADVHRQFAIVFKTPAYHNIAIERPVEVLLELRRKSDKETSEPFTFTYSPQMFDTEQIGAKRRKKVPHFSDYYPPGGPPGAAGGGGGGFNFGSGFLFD

Test [1] addresses T2, GST-Nv-NF-kB (Cys allele) (UniProt E5G601).
T2 sequence: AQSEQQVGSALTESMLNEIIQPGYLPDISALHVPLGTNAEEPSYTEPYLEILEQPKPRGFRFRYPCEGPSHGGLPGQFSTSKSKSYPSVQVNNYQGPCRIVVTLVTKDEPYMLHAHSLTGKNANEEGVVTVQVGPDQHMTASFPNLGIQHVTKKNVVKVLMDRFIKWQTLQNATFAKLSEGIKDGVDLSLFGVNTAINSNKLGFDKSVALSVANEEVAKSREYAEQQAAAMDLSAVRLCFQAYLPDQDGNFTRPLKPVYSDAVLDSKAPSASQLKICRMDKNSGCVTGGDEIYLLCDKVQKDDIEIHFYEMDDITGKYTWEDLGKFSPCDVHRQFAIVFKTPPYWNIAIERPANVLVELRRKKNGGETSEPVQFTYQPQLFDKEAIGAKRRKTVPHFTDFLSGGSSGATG

The target in a further test is T3, GST-Co-NF-kB (UniProt F1ARL5).
T3 sequence: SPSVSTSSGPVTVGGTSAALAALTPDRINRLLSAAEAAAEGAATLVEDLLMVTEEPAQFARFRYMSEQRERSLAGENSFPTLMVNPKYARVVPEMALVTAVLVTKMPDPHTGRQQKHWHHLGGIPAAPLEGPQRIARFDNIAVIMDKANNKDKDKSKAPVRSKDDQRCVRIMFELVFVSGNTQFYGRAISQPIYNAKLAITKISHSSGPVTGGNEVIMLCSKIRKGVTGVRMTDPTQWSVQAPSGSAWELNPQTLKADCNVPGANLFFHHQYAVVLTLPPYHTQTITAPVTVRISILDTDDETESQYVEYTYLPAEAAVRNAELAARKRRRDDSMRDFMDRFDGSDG

In the next test the target is T4, GST-Dm-Relish (UniProt Q94527).
T4 sequence: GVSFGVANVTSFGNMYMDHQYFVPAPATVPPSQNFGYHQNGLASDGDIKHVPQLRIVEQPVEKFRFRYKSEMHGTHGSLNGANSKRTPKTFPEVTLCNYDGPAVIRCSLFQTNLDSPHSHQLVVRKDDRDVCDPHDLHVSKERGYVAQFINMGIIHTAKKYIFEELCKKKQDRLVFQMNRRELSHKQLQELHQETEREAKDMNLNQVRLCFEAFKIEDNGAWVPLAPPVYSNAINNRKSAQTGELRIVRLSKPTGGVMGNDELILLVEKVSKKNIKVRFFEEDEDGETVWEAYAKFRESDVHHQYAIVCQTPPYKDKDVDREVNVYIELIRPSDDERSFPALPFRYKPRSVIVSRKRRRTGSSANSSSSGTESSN

The target in a further test is T5, GST-Aq-NF-kB (UniProt A9Y5G7).
T5 sequence: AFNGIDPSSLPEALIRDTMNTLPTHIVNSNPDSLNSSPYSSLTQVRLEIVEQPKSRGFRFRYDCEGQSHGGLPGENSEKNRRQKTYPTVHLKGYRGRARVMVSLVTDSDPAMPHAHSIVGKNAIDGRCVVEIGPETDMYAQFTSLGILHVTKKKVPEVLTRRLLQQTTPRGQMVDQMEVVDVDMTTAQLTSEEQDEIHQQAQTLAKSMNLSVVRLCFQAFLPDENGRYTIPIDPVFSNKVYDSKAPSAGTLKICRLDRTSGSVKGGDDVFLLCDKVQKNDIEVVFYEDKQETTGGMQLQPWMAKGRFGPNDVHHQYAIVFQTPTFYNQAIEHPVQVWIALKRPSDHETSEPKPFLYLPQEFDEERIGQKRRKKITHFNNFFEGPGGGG

The results in this text go back to article PMC5700166.

Only a part is listed here, and it is no random draw. The list includes weakly bound sequences.

As to “CCGATTAACATCATACGCATCTCTGATGTTAATCGGGTCTTGATTCGCTTGACGCTGCTG”, the binding signal with GST-Ap-NF-kB RHD was -0.232 z-score; in test [1] it was -0.292 z-score; in the test with GST-Co-NF-kB, -0.915 z-score; with GST-Dm-Relish it was -0.628 z-score; with GST-Aq-NF-kB it was -0.345 z-score.

As for “CCGATTAACATCAGGCCCACGTTTGATGTTAATCGGGTCTTGATTCGCTTGACGCTGCTG”, the binding signal with GST-Ap-NF-kB RHD was 0.2 z-score; in test [1], -0.419 z-score; with GST-Co-NF-kB, -0.795 z-score; with GST-Dm-Relish, -0.00771 z-score; in the test with GST-Aq-NF-kB, 0.151 z-score.

As to “CCGATTAACATCAGGTGTGTGCCTGATGTTAATCGGGTCTTGATTCGCTTGACGCTGCTG”, the binding signal is -0.398 z-score in the test with GST-Ap-NF-kB RHD; -0.486 z-score in test [1]; -1.25 z-score in the test with GST-Co-NF-kB; -0.828 z-score with GST-Dm-Relish; -0.384 z-score in the test with GST-Aq-NF-kB.

On to “CCGATTAACATCAGATACCAGGGTGATGTTAATCGGGTCTTGATTCGCTTGACGCTGCTG”, for which the binding signal with GST-Ap-NF-kB RHD was 0.203 z-score; in test [1], -0.217 z-score; in the test with GST-Co-NF-kB, 1.09 z-score; with GST-Dm-Relish, 0.223 z-score; with GST-Aq-NF-kB, 0.403 z-score.

Regarding “CCGATTAACATCACCCAAAAGCATGATGTTAATCGGGTCTTGATTCGCTTGACGCTGCTG”, the binding signal with GST-Ap-NF-kB RHD was 0.0226 z-score; in test [1], -0.0321 z-score; with GST-Co-NF-kB, 0.249 z-score; with GST-Dm-Relish, 0.604 z-score; with GST-Aq-NF-kB it was 0.382 z-score.

Consider “CCGATTAACATCAGGAATTTTGATGATGTTAATCGGGTCTTGATTCGCTTGACGCTGCTG”, for which the binding signal was -0.391 z-score with GST-Ap-NF-kB RHD; -0.158 z-score in test [1]; -0.254 z-score in the test with GST-Co-NF-kB; -0.00823 z-score in the test with GST-Dm-Relish; 0.598 z-score with GST-Aq-NF-kB.

With “CCGATTAACATCAATAGTTGTACTGATGTTAATCGGGTCTTGATTCGCTTGACGCTGCTG”, the binding signal in the test with GST-Ap-NF-kB RHD was -0.932 z-score; in test [1], -0.908 z-score; with GST-Co-NF-kB, -0.158 z-score; with GST-Dm-Relish it was 0.502 z-score; with GST-Aq-NF-kB, -0.467 z-score.

Take “CCGATTAACATCATCGCGAATGTTGATGTTAATCGGGTCTTGATTCGCTTGACGCTGCTG”: the binding signal with GST-Ap-NF-kB RHD is -0.26 z-score; in test [1], -0.404 z-score; in the test with GST-Co-NF-kB, -1.17 z-score; with GST-Dm-Relish, -0.28 z-score; in the test with GST-Aq-NF-kB, -0.277 z-score.

“CCGATTAACATCAATCGCCTCTCTGATGTTAATCGGGTCTTGATTCGCTTGACGCTGCTG”: the binding signal is -0.248 z-score with GST-Ap-NF-kB RHD; 0.515 z-score in test [1]; -0.626 z-score in the test with GST-Co-NF-kB; -0.737 z-score in the test with GST-Dm-Relish; -0.171 z-score with GST-Aq-NF-kB.

Turning to “CCGATTAACATCAGAATTTTCCATGATGTTAATCGGGTCTTGATTCGCTTGACGCTGCTG”, the binding signal with GST-Ap-NF-kB RHD was 0.104 z-score; in test [1], -0.155 z-score; with GST-Co-NF-kB, 0.515 z-score; in the test with GST-Dm-Relish it was -0.00679 z-score; with GST-Aq-NF-kB, 0.625 z-score.

Regarding “CCGATTAACATCACTTACCTTGTTGATGTTAATCGGGTCTTGATTCGCTTGACGCTGCTG”, the binding signal is 0.00893 z-score with GST-Ap-NF-kB RHD; 0.442 z-score in test [1]; 0.443 z-score with GST-Co-NF-kB; -0.0144 z-score in the test with GST-Dm-Relish; -0.0505 z-score with GST-Aq-NF-kB.

In the case of “CCGATTAACATCACTACTTGCTCTGATGTTAATCGGGTCTTGATTCGCTTGACGCTGCTG”, the binding signal in the test with GST-Ap-NF-kB RHD was -0.633 z-score; in test [1], -0.583 z-score; with GST-Co-NF-kB, -0.0166 z-score; in the test with GST-Dm-Relish it was -0.682 z-score; with GST-Aq-NF-kB it was -0.373 z-score.

Turning to “CCGATTAACATCATCTCGACCATTGATGTTAATCGGGTCTTGATTCGCTTGACGCTGCTG”, the binding signal in the test with GST-Ap-NF-kB RHD is -0.0441 z-score; in test [1], -1.27 z-score; in the test with GST-Co-NF-kB, 0.0129 z-score; with GST-Dm-Relish, -1.01 z-score; with GST-Aq-NF-kB, -0.629 z-score.

Turning to “CCGATTAACATCATTGGCGGATATGATGTTAATCGGGTCTTGATTCGCTTGACGCTGCTG”, the binding signal is 0.271 z-score in the test with GST-Ap-NF-kB RHD; -0.177 z-score in test [1]; 0.27 z-score with GST-Co-NF-kB; -0.458 z-score with GST-Dm-Relish; -0.165 z-score with GST-Aq-NF-kB.
